{"source": "PubChem BioAssay AID445", "about": "(National Center for Advancing Translational Sciences (NCATS), 2006)", "note": "About 40 (0.04%) of roughly 110,000 compounds were called active. Inconclusive means that the source gave no clear call. Such entries were picked first, then a sample of the others. Calls follow the shape of the dose curve; as a rule, active = well fitted curve in the direction sought with a large enough effect in the signal ratio (not every such curve was filed as active); inconclusive = small, poorly fitted or top-dose-only effect, or a change in a side signal; inactive = flat fitted curve, though single readings scatter; the % refers to the signal ratio. A potency beside an inconclusive call is a rough fit, not a confirmed value. Potency is read from the fitted curve at half-maximal effect.", "data": [{"test": "IkB Signaling;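 as to IkBa stabilization activation: 0% = basal untreated cells and 100% = reference inhibitor full response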", "details": "ABC-DLBCL IkBa-CBG/CBR dual luciferase ratio (green luciferase fused to IkBa over red control in OCI-Ly3 lymphoma cells), 4 h; IkBa stabilization activation: at 57.1 µM (top of the series), scaled: untreated 0%, proteasome inhibitor 100% unless noted", "outline": "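Luminescence ratio of IκBα-fused green versus native red beetle luciferase in OCI-Ly3 cells, 4 h post-doxycycline with compound; red signal alone, scaled from basal (0%) to zero light (-100%), flagged nonspecific or cytotoxic effects.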", "values": [{"molecule": "Cc1nnc(N2CCN(c3cccc(Cl)c3)CC2)c2c1nnn2Cc1ccc(F)cc1", "IkBa stabilization activation": "inconclusive: 2.73% [signal inhibitor]"}, {"molecule": "COc1cccc(-c2nn(C)c3sc(C(=O)NCCc4cccc(C)c4)cc23)c1", "IkBa stabilization activation": "inconclusive: 4.73% [signal inhibitor]"}, {"molecule": "N=C(N)SCCc1ccc(OCc2ccc([N+](=O)[O-])cc2)cc1", "IkBa stabilization activation": "inconclusive: 2.68% [signal inhibitor]"}, {"molecule": "CCOc1ccc(OCC)c(NC(=O)c2cnn(-c3ccc(F)cc3)c2C2CCN(C(=O)OC(C)(C)C)CC2)c1", "IkBa stabilization activation": "inconclusive: 0.356% [signal inhibitor]"}, {"molecule": "CCCn1c(SCC(=O)Nc2nc3c(s2)CCCC3)nc2c1c(=O)n(C)c(=O)n2C", "IkBa stabilization activation": "inactive: 1.16%"}, {"molecule": "CCC(=O)N1CCCc2cc(S(=O)(=O)N3CCN(c4ccccc4F)CC3)ccc21", "Potency": "inconclusive: 15.8 µM [signal inhibitor, partial curve]"}, {"molecule": "COc1cc(N2C(=O)CSC23C(=O)N(Cc2cccc(F)c2)c2ccccc23)cc(OC)c1OC", "note": "(configuration not stated)", "IkBa stabilization activation": "inconclusive: 1.76% [signal inhibitor]"}, {"molecule": "CCOC(=O)Cn1c(=O)n(CC2CCCO2)c2nc(-c3ccc(OCC)cc3)nc(C(N)=O)c21", "note": "(configuration not stated)", "IkBa stabilization activation": "inconclusive: 0.486% [signal inhibitor]"}, {"molecule": "COc1ccccc1Nc1c2c(nc3ccc(NC(=O)c4ccc(OC)c(OC)c4)cc13)CCCC2", "IkBa stabilization activation": "inconclusive: -4.7% [signal inhibitor]"}, {"molecule": "O=CNc1ncn[nH]1", "IkBa stabilization activation": "inactive: 2.21% [at 11.4 µM, scaled: untreated 0%, proteasome inhibitor 100%]"}, {"molecule": "Cc1ccc(-n2ncc(C(=O)NCc3ccccc3)c2C2CCN(C(=O)OC(C)(C)C)CC2)cc1", "IkBa stabilization activation": "inconclusive: -1% [signal inhibitor]"}, {"molecule": "CCOC(=O)c1cc(-c2ccc(OC)c(S(=O)(=O)NC3CCCCC3)c2)on1", "IkBa stabilization activation": "inconclusive: 16.2% [signal inhibitor]"}, {"molecule": "Cn1c(=O)[nH]c(=O)c2c1nc(Sc1nc3ccccc3s1)n2Cc1ccccc1", "IkBa stabilization activation": "inconclusive: 1.6% [signal inhibitor]"}, {"molecule": "COc1ccc(CCNC(=O)CN2C(=O)COc3ccc(C)cc32)cc1OC", "IkBa stabilization activation": "inconclusive: 2.78% [signal inhibitor]"}, {"molecule": "COc1cc(C(=O)O)ccc1OC(C)=O", "IkBa stabilization activation": "inactive: -4.29%"}, {"molecule": "Cc1cccc(Nc2nn3c(=O)c4cc5c(cc4nc3s2)OCO5)c1", "IkBa stabilization activation": "inconclusive: 3.62% [signal activator]"}, {"molecule": "Cc1ccc(C(=O)NCc2ccc3c(c2)CCN3C(=O)c2ccc(C)cc2)cc1", "IkBa stabilization activation": "inconclusive: -0.597% [signal inhibitor]"}, {"molecule": "COc1nc(Nc2nc3ccccc3c(=O)[nH]2)nc2ccc(C)cc12", "IkBa stabilization activation": "inconclusive: 1.18% [signal inhibitor]"}, {"molecule": "COc1ccccc1N1CCN(C(c2ccc(Cl)cc2)c2nnc(-c3cccc(F)c3)o2)CC1", "note": "(configuration not stated)", "Potency": "inconclusive: 6.31 µM [signal inhibitor]"}, {"molecule": "O=C(Nc1ccc(Cl)c(-c2nc3ccccc3o2)c1)c1ccc(-c2cccc([N+](=O)[O-])c2)o1", "IkBa stabilization activation": "inconclusive: 8.1% [signal inhibitor]"}, {"molecule": "CCCSc1oc(-c2ccco2)nc1S(=O)(=O)c1ccc(Cl)cc1", "IkBa stabilization activation": "inconclusive: -1.47% [signal inhibitor]"}, {"molecule": "COc1ccc(CC(=O)Nc2sc3c(c2C(=O)Nc2cccc(C)c2)CCCCC3)cc1", "IkBa stabilization activation": "inconclusive: 3.85% [signal inhibitor]"}, {"molecule": "Cc1ccc(Cl)cc1Nc1sc(C(=O)c2ccc(F)cc2)c(N)c1S(C)(=O)=O", "IkBa stabilization activation": "inconclusive: 1.14% [signal inhibitor]"}, {"molecule": "O=C(CSc1nc(=O)n(Cc2ccco2)c2c1CCC2)Nc1cccc(F)c1", "IkBa stabilization activation": "inconclusive: 5.07% [signal inhibitor]"}, {"molecule": "O=C(O)CCC/C=C\\C[C@H]1[C@@H](/C=C\\[C@@H](O)C2Cc3ccccc3C2)[C@H](F)C[C@H]1O", "IkBa stabilization activation": "inactive: 1.11%"}, {"molecule": "Cc1cccc(NC(=O)CCNS(=O)(=O)c2cccc3nonc23)c1", "IkBa stabilization activation": "inconclusive: 1.24% [signal inhibitor]"}, {"molecule": "COc1cccc(-n2c(-c3ccco3)nc3c(cnn3-c3ccc(C)cc3)c2=O)c1", "IkBa stabilization activation": "inconclusive: 3.84% [signal inhibitor]"}, {"molecule": "CCOc1ccc(NS(=O)(=O)c2ccc3[nH]cc(C(=O)NC4CCCC4)c(=O)c3c2)cc1", "IkBa stabilization activation": "inconclusive: 0.11% [signal inhibitor]"}, {"molecule": "CC(O)/C=C/c1ccc2ccccc2n1", "note": "(configuration not stated)", "IkBa stabilization activation": "inactive: 3.05%"}, {"molecule": "CCOc1ccc(S(=O)(=O)N2CCc3ccccc3C2)cc1", "IkBa stabilization activation": "inactive: 2.58%"}, {"molecule": "O=C(O)c1cc(O)c2c(c1)C(=O)c1cccc(O)c1C2=O", "Potency": "inconclusive: 1 µM [signal inhibitor, full curve]"}, {"molecule": "CC1=C(C(=O)NCc2ccc(C)cc2)C2(CCCCC2)OC1=O", "IkBa stabilization activation": "inconclusive: 2.24% [signal inhibitor]"}, {"molecule": "O=C(Nc1ccncc1)C1COc2ccccc2O1", "note": "(configuration not stated)", "IkBa stabilization activation": "inactive: 2.02%"}, {"molecule": "Cc1c(Cl)c(S(N)(=O)=O)cc(S(N)(=O)=O)c1NC(=O)c1ccc(Cl)cc1", "IkBa stabilization activation": "inactive: 0.994% [at 11.4 µM, scaled: untreated 0%, proteasome inhibitor 100%]"}, {"molecule": "c1ccc(-c2noc(C34CC5CC(CC(C5)C3)C4)n2)nc1", "IkBa stabilization activation": "inactive: 1.6%"}, {"molecule": "Cc1ccc(-c2cc(C(=O)Nc3c(C#N)cnn3C)no2)cc1", "IkBa stabilization activation": "inactive: -1.94%"}, {"molecule": "Cc1ccccc1-n1nnc2c(=O)oc3ccccc3c21", "IkBa stabilization activation": "inconclusive: -1.41% [signal inhibitor]"}, {"molecule": "O=C(CSc1nc2ccccc2nc1Cc1ccc(Cl)cc1)N1CCN(c2ccccc2F)CC1", "IkBa stabilization activation": "inactive: -2.82%"}, {"molecule": "Cc1ccc(C)c(Cn2c(SCC(=O)N(C)Cc3ccccc3)nc3ccccc32)c1", "IkBa stabilization activation": "inconclusive: 0.542% [signal inhibitor]"}, {"molecule": "Cc1ccc(C)c(N2CCN(C(=O)CCCCCn3c(=O)[nH]c4ccccc4c3=O)CC2)c1", "IkBa stabilization activation": "inconclusive: -3.88% [signal inhibitor]"}, {"molecule": "CN(C(=O)CSc1nc2ccc(NC(=O)CCc3ccccc3)cc2s1)c1ccccc1", "IkBa stabilization activation": "inconclusive: -0.82% [signal inhibitor]"}, {"molecule": "CCc1ccccc1NC(=O)C(=O)NCC(c1cccnc1)N1CCc2ccccc21", "note": "(configuration not stated)", "IkBa stabilization activation": "inconclusive: 7.83% [signal inhibitor]"}, {"molecule": "CCOc1ccc(-c2cc(C(=O)N3CCN(c4cccc(C)c4)C(C)C3)c3ccccc3n2)cc1", "note": "(configuration not stated)", "IkBa stabilization activation": "inconclusive: 1.17% [signal inhibitor]"}, {"molecule": "COc1ccc2c(c1)Cc1sc(NC(=O)c3cccc(F)c3)nc1-2", "IkBa stabilization activation": "inconclusive: 13.5% [signal inhibitor]"}, {"molecule": "Cc1ccc(NC(=O)NCC2CCN(Cc3cccc(Cl)c3)CC2)cc1Cl", "IkBa stabilization activation": "inconclusive: 2.51% [signal inhibitor]"}, {"molecule": "CCc1cccc(NC(c2nnc(-c3ccccc3)o2)c2ccc(F)cc2Cl)c1", "note": "(configuration not stated)", "IkBa stabilization activation": "inconclusive: -2.38% [signal inhibitor]"}, {"molecule": "CCCC(=O)Nc1cc(-c2nc3cccnc3s2)ccc1C", "IkBa stabilization activation": "inactive: -2.48%"}, {"molecule": "Cc1cccc(-n2c(N)c(C(=O)NCCN3CCOCC3)c3nc4ccccc4nc32)c1", "IkBa stabilization activation": "inactive: 0.0975%"}, {"molecule": "COc1cccc(CNC(=O)CSc2nc3ccccc3nc2Cc2ccc(C)cc2)c1OC", "IkBa stabilization activation": "inconclusive: -0.236% [signal inhibitor]"}, {"molecule": "CCc1nnc(NC(=O)c2cccc(C(=O)Nc3nnc(CC)s3)n2)s1", "IkBa stabilization activation": "inconclusive: 14.5% [signal activator]"}, {"molecule": "Cc1ccc(NC(=O)CCNS(=O)(=O)c2ccc3c(c2)CCN3C(=O)C2CC2)c(Cl)c1", "IkBa stabilization activation": "inactive: -1.59%"}, {"molecule": "CCOc1ccccc1NC(=O)CSc1ncc(S(=O)(=O)c2ccc(C(C)(C)C)cc2)c(=O)[nH]1", "Potency": "inconclusive: 31.6 µM [signal inhibitor, single point]"}, {"molecule": "CCOC(=O)c1[nH]c2ccccc2c1NC(=O)c1cc(OC)c(OC)c(OC)c1", "IkBa stabilization activation": "inactive: 2.63%"}, {"molecule": "CCCCNC(=O)CCn1c(=O)c2cccn2c2ccc(F)cc21", "IkBa stabilization activation": "inconclusive: 1.94% [signal inhibitor]"}, {"molecule": "O=C(Cn1cnc2c(nnn2Cc2ccc(Cl)cc2)c1=O)OCc1ccccc1", "IkBa stabilization activation": "inconclusive: -0.285% [signal inhibitor]"}, {"molecule": "COc1ccc(Nc2ncc(C(=O)Nc3cc(Cl)c(OC)cc3OC)c3ccccc23)cc1", "IkBa stabilization activation": "inconclusive: 5.03% [signal inhibitor]"}, {"molecule": "Cc1cc(C)c2c(=O)n(CC(=O)NCCCN3CCOCC3)sc2n1", "IkBa stabilization activation": "inactive: 25.7%"}, {"molecule": "O=C(CCS(=O)(=O)c1nc(-c2ccc3c(c2)OCO3)cc(C(F)(F)F)n1)Nc1ccc(F)c(Cl)c1", "Potency": "inconclusive: 5.01 µM [signal inhibitor, single point]"}, {"molecule": "O=C(Nc1nc2c(ccc3ccccc32)s1)c1ccco1", "IkBa stabilization activation": "inconclusive: -1.78% [signal inhibitor]"}, {"molecule": "CCOC(=O)c1c(C2COc3ccccc3O2)csc1N", "note": "(configuration not stated)", "IkBa stabilization activation": "inconclusive: 7.01% [signal inhibitor]"}, {"molecule": "COc1ccc(N2CCN(C(=O)c3ccc(Nc4nc5ccccc5n5nnnc45)cc3)CC2)cc1", "Potency": "inconclusive: 12.6 µM [signal inhibitor, partial curve]"}, {"molecule": "O=C1CC(c2cccc(Cl)c2)Cc2nc(N3CCN(c4ccccc4)CC3)ncc21", "note": "(configuration not stated)", "IkBa stabilization activation": "inactive: -0.0711%"}, {"molecule": "CCC(Sc1ccc2nnc(-c3ccc(OC)c(OC)c3)n2n1)C(=O)O", "note": "(configuration not stated)", "IkBa stabilization activation": "inactive: 1.45%"}, {"molecule": "Cc1ccc(N2C(=O)C3C(C2=O)C(C(=O)c2ccc(Cl)cc2)N2CCCC32)cc1", "note": "(configuration not stated)", "Potency": "inconclusive: 15.8 µM [signal inhibitor, partial curve]"}, {"molecule": "CC(=O)O[C@@H]1C[C@]2(C)[C@H](C[C@@H](O)[C@H]3[C@@]4(C)CC[C@@H](O)[C@@H](C)[C@@H]4CC[C@@]32C)/C1=C(\\CCC=C(C)C)C(=O)O", "IkBa stabilization activation": "inactive: -0.513%"}, {"molecule": "Clc1cccc(Cl)c1-c1nnc2ccc(N3CCOCC3)nn12", "IkBa stabilization activation": "inactive: -0.639%"}, {"molecule": "Cc1ccc(C)c(N2CCN(C(=O)C3CCC(CNS(=O)(=O)c4ccc(Br)s4)CC3)CC2)c1", "note": "(configuration not stated)", "IkBa stabilization activation": "inconclusive: 8.52% [signal inhibitor]"}]}]}
